Test results from the supplement of paper PMC8728848.
This is one part of the list.

Key:
Assay in all cases: glycan array binding signal (z-score within array); higher = stronger binding
Conditions in all cases: glycan notation: IUPAC condensed, linker removed
[1] = molecular target: GlcNAc(a1-6)Gal(b1-4)GlcNAc
Method in brief: (§1)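 Arrays were curated from the Consortium for Functional Glycomics database, 3228 in total, and kept only where the protein sequence was available. Binding is expressed as a within-array Z-score. This score was averaged across arrays of the same protein sequence at different concentrations or buffers and across linkers, and negative values can be read as non-binding.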

[2] = molecular target: GlcNAc(b1-2)Gal(b1-3)GalNAc
Method in brief: as §1

[3] = molecular target: GlcNAc(b1-2)Man(a1-3)[GlcNAc(b1-2)Man(a1-6)]Man(b1-4)GlcNAc(b1-4)GlcNAc
Method in brief: as §1

[4] = molecular target: GlcNAc(b1-2)Man(a1-3)[GlcNAc(b1-2)Man(a1-6)]Man(b1-4)GlcNAc(b1-4)[Fuc(a1-6)]GlcNAc
Method in brief: as §1

[5] = molecular target: GlcNAc(b1-2)Man(a1-3)[GlcNAc(b1-4)][GlcNAc(b1-2)Man(a1-6)]Man(b1-4)GlcNAc(b1-4)GlcNAc
Method in brief: as §1

[6] = molecular target: GlcNAc(b1-2)Man(a1-3)[GlcNAc(b1-4)][GlcNAc(b1-2)Man(a1-6)]Man(b1-4)GlcNAc(b1-4)[Fuc(a1-6)]GlcNAc
Method in brief: as §1

[7] = molecular target: GlcNAc(b1-2)[GlcNAc(b1-4)]Man(a1-3)[GlcNAc(b1-2)Man(a1-6)]Man(b1-4)GlcNAc(b1-4)GlcNAc
Method in brief: as §1

[8] = molecular target: GlcNAc(b1-2)[GlcNAc(b1-4)]Man(a1-3)[GlcNAc(b1-4)][GlcNAc(b1-2)Man(a1-6)]Man(b1-4)GlcNAc(b1-4)GlcNAc
Method in brief: as §1

[9] = molecular target: GlcNAc(b1-2)[GlcNAc(b1-4)]Man(a1-3)[GlcNAc(b1-4)][GlcNAc(b1-2)[GlcNAc(b1-6)]Man(a1-6)]Man(b1-4)GlcNAc(b1-4)GlcNAc
Method in brief: as §1

[10] = molecular target: GlcNAc(b1-2)[GlcNAc(b1-4)]Man(a1-3)[GlcNAc(b1-4)][GlcNAc(b1-2)[GlcNAc(b1-6)]Man(a1-6)]Man(b1-4)GlcNAc(b1-4)[Fuc(a1-6)]GlcNAc
Method in brief: as §1

[11] = molecular target: GlcNAc(b1-2)[GlcNAc(b1-6)]Man(a1-6)[GlcNAc(b1-2)Man(a1-3)]Man(b1-4)GlcNAc(b1-4)GlcNAc
Method in brief: as §1

[12] = molecular target: GlcNAc(b1-2)[GlcNAc(b1-6)]Man(a1-6)[GlcNAc(b1-2)Man(a1-3)]Man(b1-4)GlcNAc(b1-4)[Fuc(a1-6)]GlcNAc
Method in brief: as §1

[13] = molecular target: GlcNAc(b1-2)[GlcNAc(b1-6)]Man(a1-6)[GlcNAc(b1-4)][GlcNAc(b1-2)Man(a1-3)]Man(b1-4)GlcNAc(b1-4)GlcNAc
Method in brief: as §1

GlcNAc(b1-3)Fuc = molecular target: GlcNAc(b1-3)Fuc
Method in brief: as §1

GlcNAc(b1-3)Gal = molecular target: GlcNAc(b1-3)Gal
Method in brief: as §1

[14] = molecular target: GlcNAc(b1-3)Gal(b1-3)GalNAc
Method in brief: as §1

GlcNAc(b1-3)Gal(b1-4)Glc = molecular target: GlcNAc(b1-3)Gal(b1-4)Glc
Method in brief: as §1

[15] = molecular target: GlcNAc(b1-3)Gal(b1-4)GlcNAc
Method in brief: as §1

[16] = molecular target: GlcNAc(b1-3)Gal(b1-4)GlcNAc(b1-2)Man(a1-3)[GlcNAc(b1-3)Gal(b1-4)GlcNAc(b1-2)Man(a1-6)]Man(b1-4)GlcNAc(b1-4)GlcNAc
Method in brief: as §1

[17] = molecular target: GlcNAc(b1-3)Gal(b1-4)GlcNAc(b1-2)Man(a1-3)[GlcNAc(b1-3)Gal(b1-4)GlcNAc(b1-2)Man(a1-6)]Man(b1-4)GlcNAc(b1-4)[Fuc(a1-6)]GlcNAc
Method in brief: as §1

[18] = molecular target: GlcNAc(b1-3)Gal(b1-4)GlcNAc(b1-2)[GlcNAc(b1-3)Gal(b1-4)GlcNAc(b1-6)]Man(a1-6)[GlcNAc(b1-3)Gal(b1-4)GlcNAc(b1-2)Man(a1-3)]Man(b1-4)GlcNAc(b1-4)GlcNAc
Method in brief: as §1

[19] = molecular target: GlcNAc(b1-3)Gal(b1-4)GlcNAc(b1-3)Gal(b1-4)GlcNAc
Method in brief: as §1

[20] = molecular target: GlcNAc(b1-3)Gal(b1-4)GlcNAc(b1-3)Gal(b1-4)GlcNAc(b1-2)Man(a1-3)[GlcNAc(b1-3)Gal(b1-4)GlcNAc(b1-3)Gal(b1-4)GlcNAc(b1-2)Man(a1-6)]Man(b1-4)GlcNAc(b1-4)GlcNAc
Method in brief: as §1

[21] = molecular target: GlcNAc(b1-3)Gal(b1-4)GlcNAc(b1-3)Gal(b1-4)GlcNAc(b1-2)Man(a1-3)[GlcNAc(b1-3)Gal(b1-4)GlcNAc(b1-3)Gal(b1-4)GlcNAc(b1-2)Man(a1-6)]Man(b1-4)GlcNAc(b1-4)[Fuc(a1-6)]GlcNAc
Method in brief: as §1

[22] = molecular target: GlcNAc(b1-3)Gal(b1-4)GlcNAc(b1-3)Gal(b1-4)GlcNAc(b1-2)[GlcNAc(b1-3)Gal(b1-4)GlcNAc(b1-3)Gal(b1-4)GlcNAc(b1-6)]Man(a1-6)[GlcNAc(b1-3)Gal(b1-4)GlcNAc(b1-3)Gal(b1-4)GlcNAc(b1-2)Man(a1-3)]Man(b1-4)GlcNAc(b1-4)[Fuc(a1-6)]GlcNAc
Method in brief: as §1

[23] = molecular target: GlcNAc(b1-3)Gal(b1-4)GlcNAc(b1-3)Gal(b1-4)GlcNAc(b1-3)Gal(b1-4)GlcNAc(b1-2)Man(a1-3)[GlcNAc(b1-3)Gal(b1-4)GlcNAc(b1-3)Gal(b1-4)GlcNAc(b1-3)Gal(b1-4)GlcNAc(b1-2)Man(a1-6)]Man(b1-4)GlcNAc(b1-4)GlcNAc
Method in brief: as §1

[24] = molecular target: GlcNAc(b1-3)Gal(b1-4)GlcNAc(b1-3)Gal(b1-4)GlcNAc(b1-3)Gal(b1-4)GlcNAc(b1-2)Man(a1-3)[GlcNAc(b1-3)Gal(b1-4)GlcNAc(b1-3)Gal(b1-4)GlcNAc(b1-3)Gal(b1-4)GlcNAc(b1-2)Man(a1-6)]Man(b1-4)GlcNAc(b1-4)[Fuc(a1-6)]GlcNAc
Method in brief: as §1

[25] = molecular target: GlcNAc(b1-3)Gal(b1-4)GlcNAc(b1-3)Gal(b1-4)GlcNAc(b1-3)Gal(b1-4)GlcNAc(b1-2)[GlcNAc(b1-3)Gal(b1-4)GlcNAc(b1-3)Gal(b1-4)GlcNAc(b1-3)Gal(b1-4)GlcNAc(b1-6)]Man(a1-6)[GlcNAc(b1-3)Gal(b1-4)GlcNAc(b1-3)Gal(b1-4)GlcNAc(b1-3)Gal(b1-4)GlcNAc(b1-2)Man(a1-3)]Man(b1-4)GlcNAc(b1-4)[Fuc(a1-6)]GlcNAc
Method in brief: as §1

[26] = molecular target: GlcNAc(b1-3)Gal(b1-4)GlcNAc(b1-3)Gal(b1-4)GlcNAc(b1-3)Gal(b1-4)GlcNAc(b1-3)Gal(b1-4)GlcNAc(b1-2)Man(a1-3)[GlcNAc(b1-3)Gal(b1-4)GlcNAc(b1-3)Gal(b1-4)GlcNAc(b1-3)Gal(b1-4)GlcNAc(b1-3)Gal(b1-4)GlcNAc(b1-2)Man(a1-6)]Man(b1-4)GlcNAc(b1-4)GlcNAc
Method in brief: as §1

[27] = molecular target: GlcNAc(b1-3)Gal(b1-4)GlcNAc(b1-3)Gal(b1-4)GlcNAc(b1-3)Gal(b1-4)GlcNAc(b1-3)Gal(b1-4)GlcNAc(b1-2)Man(a1-3)[GlcNAc(b1-3)Gal(b1-4)GlcNAc(b1-3)Gal(b1-4)GlcNAc(b1-3)Gal(b1-4)GlcNAc(b1-3)Gal(b1-4)GlcNAc(b1-2)Man(a1-6)]Man(b1-4)GlcNAc(b1-4)[Fuc(a1-6)]GlcNAc
Method in brief: as §1

[28] = molecular target: GlcNAc(b1-3)Gal(b1-4)GlcNAc(b1-3)Gal(b1-4)GlcNAc(b1-3)Gal(b1-4)GlcNAc(b1-3)Gal(b1-4)GlcNAc(b1-2)[GlcNAc(b1-3)Gal(b1-4)GlcNAc(b1-3)Gal(b1-4)GlcNAc(b1-3)Gal(b1-4)GlcNAc(b1-3)Gal(b1-4)GlcNAc(b1-6)]Man(a1-6)[GlcNAc(b1-3)Gal(b1-4)GlcNAc(b1-3)Gal(b1-4)GlcNAc(b1-3)Gal(b1-4)GlcNAc(b1-3)Gal(b1-4)GlcNAc(b1-2)Man(a1-3)]Man(b1-4)GlcNAc(b1-4)[Fuc(a1-6)]GlcNAc
Method in brief: as §1

[29] = molecular target: GlcNAc(b1-3)Gal(b1-4)GlcNAc(b1-3)Gal(b1-4)GlcNAc(b1-3)GalNAc
Method in brief: as §1

[30] = molecular target: GlcNAc(b1-3)Gal(b1-4)GlcNAc(b1-3)GalNAc
Method in brief: as §1

[31] = molecular target: GlcNAc(b1-3)Gal(b1-4)GlcNAc(b1-3)[GlcNAc(b1-3)Gal(b1-4)GlcNAc(b1-3)]GalNAc
Method in brief: as §1

[32] = molecular target: GlcNAc(b1-3)Gal(b1-4)GlcNAc(b1-6)[Gal(b1-3)]GalNAc
Method in brief: as §1

[33] = molecular target: GlcNAc(b1-3)Gal(b1-4)GlcNAc(b1-6)[GlcNAc(b1-3)Gal(b1-3)]GalNAc
Method in brief: as §1

[34] = molecular target: GlcNAc(b1-3)Gal(b1-4)GlcNAc(b1-6)[GlcNAc(b1-3)]Gal(b1-4)GlcNAc
Method in brief: as §1

GlcNAc(b1-3)GalNAc = molecular target: GlcNAc(b1-3)GalNAc
Method in brief: as §1

GlcNAc(b1-3)Man = molecular target: GlcNAc(b1-3)Man
Method in brief: as §1

[35] = molecular target: GlcNAc(b1-3)[GlcNAc(b1-4)][GlcNAc(b1-6)]GlcNAc
Method in brief: as §1

[36] = molecular target: GlcNAc(b1-3)[GlcNAc(b1-6)]Gal(b1-4)GlcNAc
Method in brief: as §1

[37] = molecular target: GlcNAc(b1-3)[GlcNAc(b1-6)]GalNAc
Method in brief: as §1

[38] = molecular target: GlcNAc(b1-4)Gal(b1-4)GlcNAc
Method in brief: as §1

GlcNAc(b1-4)GlcNAc = molecular target: GlcNAc(b1-4)GlcNAc
Method in brief: as §1

[39] = molecular target: GlcNAc(b1-4)GlcNAc(b1-4)GlcNAc
Method in brief: as §1

B1: EPL1 (Trichoderma atroviride), A0PCX2 (protein)
chain: MQLSNLFKLALFTAAVSADTVSYDTGYDDASRSLTVVSCSDGTNGLITRYHWQTQGQIPRFPYIGGAQAVAGWNSPNCGTCWKLTYSGKTIYVLAIDHTAAGFNIGLDAMNALTNGNAVALGRVSATASQVAVSNCGL
glycan array binding signal (z-score) [1]: -0.234
glycan array binding signal (z-score) [2]: -0.386
glycan array binding signal (z-score) [3]: -0.302
glycan array binding signal (z-score) [4]: -0.216
glycan array binding signal (z-score) [5]: -0.252
glycan array binding signal (z-score) [6]: -0.381
glycan array binding signal (z-score) [7]: -0.238
glycan array binding signal (z-score) [8]: -0.032
glycan array binding signal (z-score) [9]: -0.205
glycan array binding signal (z-score) [10]: -0.001
glycan array binding signal (z-score) [11]: 0.123
glycan array binding signal (z-score) [12]: -0.285
glycan array binding signal (z-score) [13]: -0.514
glycan array binding signal (z-score) (GlcNAc(b1-3)Fuc): -0.298
glycan array binding signal (z-score) (GlcNAc(b1-3)Gal): 0.034
glycan array binding signal (z-score) [14]: -0.143
glycan array binding signal (z-score) (GlcNAc(b1-3)Gal(b1-4)Glc): -0.465
glycan array binding signal (z-score) [15]: -0.488
glycan array binding signal (z-score) [16]: 0.452
glycan array binding signal (z-score) [17]: 0.103
glycan array binding signal (z-score) [18]: 0.498
glycan array binding signal (z-score) [19]: 0.071
glycan array binding signal (z-score) [20]: 0.862
glycan array binding signal (z-score) [21]: 0.145
glycan array binding signal (z-score) [22]: 0.274
glycan array binding signal (z-score) [23]: 0.234
glycan array binding signal (z-score) [24]: 0.866
glycan array binding signal (z-score) [25]: 0.127
glycan array binding signal (z-score) [26]: -0.389
glycan array binding signal (z-score) [27]: -0.351
glycan array binding signal (z-score) [28]: -0.382
glycan array binding signal (z-score) [29]: -0.528
glycan array binding signal (z-score) [30]: -0.37
glycan array binding signal (z-score) [31]: -0.324
glycan array binding signal (z-score) [32]: -0.043
glycan array binding signal (z-score) [33]: -0.329
glycan array binding signal (z-score) [34]: -0.15
glycan array binding signal (z-score) (GlcNAc(b1-3)GalNAc): -0.464
glycan array binding signal (z-score) (GlcNAc(b1-3)Man): -0.466
glycan array binding signal (z-score) [35]: -0.494
glycan array binding signal (z-score) [36]: -0.117
glycan array binding signal (z-score) [37]: -0.302
glycan array binding signal (z-score) [38]: 0.183
glycan array binding signal (z-score) (GlcNAc(b1-4)GlcNAc): -0.11
glycan array binding signal (z-score) [39]: -0.632
